# Results taken from PubChem BioAssay AID1240 (Sanford-Burnham Center for Chemical Genomics, 2008).
# Among all 50,000 compounds or so, about 800 (1.6%) showed an effect of 50% or more. Some of the results follow.
# Target: Bcl-2-like protein 10 (Homo sapiens) (UniProt Q9HD36)
# Experiment: Phenotype converters, Bcl-B/TR3 peptide binding displacement, primary biochemical FP (AID 1240);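 note: 0% = Bcl-B with tracer peptide and DMSO and 100% = tracer peptide lacking Bcl-B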
# Conditions: GST-Bcl-B / FITC-TR3 peptide fluorescence polarization; stronger effect = higher value; compound at 3.75 mg/L
# Chain of UniProt Q9HD36 (Q9HD36 whole entry, looked up): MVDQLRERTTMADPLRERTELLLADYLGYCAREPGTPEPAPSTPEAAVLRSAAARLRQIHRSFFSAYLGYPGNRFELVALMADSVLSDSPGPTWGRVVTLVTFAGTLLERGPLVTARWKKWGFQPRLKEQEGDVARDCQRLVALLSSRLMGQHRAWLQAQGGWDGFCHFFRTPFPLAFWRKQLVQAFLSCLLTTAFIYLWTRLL
row,Structure (SMILES),displacement
1,CCOc1ccc(S(=O)(=O)N(CC(=O)Nc2ccccc2OCC)c2ccc(C)cc2)cc1,4.5%
2,CCOC(=O)c1sc(NC(=O)c2cc3n(n2)C(C(F)(F)F)CC(c2ccc4c(c2)OCO4)N3)c(C(=O)OCC)c1C (stereo not given),11.8%
3,CCOc1cc(C=O)ccc1OCCOc1ccc(C)cc1,-8.8%
4,CCOC(=O)C1=C(O)/C(=C/c2cc(OC)c(OC)c(OC)c2)SC1=Nc1ccc([N+](=O)[O-])cc1,-5%
5,Cc1ccc(S(=O)(=O)N2CCN(c3ccccc3)CC2)cc1[N+](=O)[O-],-14.7%
6,COc1ccc(OC)c(C(=O)c2ccc(C(=O)NCc3ccccc3)cc2)c1,-5.3%
7,CCOC(=O)C1=C(O)/C(=C/c2ccc(C)o2)SC1=Nc1ccc([N+](=O)[O-])cc1,-8.2%
8,COc1ccc(CNC23CC4CC(CC(C4)C2)C3)cc1Br,11.3%
9,CCCc1cc(C(=O)OC)c(NC(=O)/C=C/C(=O)O)s1,10.4%
10,COc1ccc(CN2CCN(Cc3cc(Br)ccc3O)CC2)cc1OC,1.4%
11,COc1ccc(C(=O)Nc2ccc(S(=O)(=O)Nc3cc(C)on3)cc2)c(OC)c1,5.7%
12,C=CCNC(=O)C(=O)Nc1ccccc1OCC,2.8%
13,COc1cc(OC)c(C2C(C(=O)OCC3CCCO3)=C(C)NC3=C2C(=O)CCC3)cc1OC (stereo not given),-0.6%
14,CCCCOC(=O)c1cccc(NC(=O)COc2ccccc2Cl)c1,1%
15,CS(=O)(=O)N(CC(=O)N1CCCC1)c1cccc(C(F)(F)F)c1,11.3%
16,Cc1ccc2nsnc2c1NC(=O)c1ccc(-c2cccc(Cl)c2)o1,1.4%
17,COc1ccc(/C=C2/C(=O)NN(c3ccc(I)cc3)C2=O)cc1,0.5%
18,O=C1c2[nH]nc(-c3ccccc3)c2C(c2ccc([N+](=O)[O-])cc2)N1c1ccccc1 (stereo not given),3.4%
19,C/C(=N\NC(=O)c1cc(C2CC2)[nH]n1)c1cccc([N+](=O)[O-])c1,-8.8%
20,CC1=C(C(=O)OCc2ccc(C)cc2)C(c2cccc(O)c2)NC(=O)N1 (stereo not given),11.4%
21,O=C1OC(c2ccccc2)=N/C1=C1/c2ccccc2-c2ccc([N+](=O)[O-])cc21,-6.7%
22,COCCNc1ncnc2ccc(Br)cc12,1.9%
23,O=C(COc1ccccc1)Nc1ccc(O)c(-c2nc3ccccc3o2)c1,15.3%
24,N/C(=N\S(=O)(=O)c1ccccc1)c1cccc(Cl)c1,-6.2%
25,COc1ccc(Nc2nc(NCc3ccco3)nc(N/N=C/c3cc4c(cc3[N+](=O)[O-])OCO4)n2)cc1,7.7%
26,Cc1ccc(NC(=O)/C=C/c2ccc(Cl)cc2)c([N+](=O)[O-])c1,-1.3%
27,CC(=O)c1cc2c(N)c(C(=O)c3ccc(Br)cc3)sc2nc1C,10.1%

row,Structure (SMILES),displacement
1,COc1ccc(Cl)cc1NC(=O)c1c(-c2ccccc2)noc1C,-4.4%
2,CCC1CCc2c(sc(NC(=O)C3C4CCC(C4)C3C(=O)O)c2C(N)=O)C1 (stereo not given),5.9%
3,C=CCOc1ccc(C(=O)NC(C)C2COc3ccccc3O2)cc1 (stereo not given),11.1%
4,CC1(C)CC(=O)C(C(O)c2cccc([N+](=O)[O-])c2)C(C)(C)N1 (stereo not given),-2.2%
5,O=C(Nc1ccc2c(c1)OCO2)c1ccc(Cl)cc1,-1%
6,COC(=O)C1=C(C(=O)OC)SC2(S1)C(c1ccccc1)=CSC(C(=O)OC)=C2C(=O)OC,-13.3%
7,O=[N+]([O-])c1cccc(S(=O)(=O)NCc2ccc(Cl)cc2)c1,3.2%
8,CCC1(c2ccccc2)OC(=O)C2C3CCCCC3=C3CCCCC3C21 (stereo not given),2.3%
9,O=C(/C=C/c1ccc(OCc2ccccc2)cc1)c1ccc(F)cc1,-5.1%
10,CCOc1ccccc1C(=O)Nc1nc(-c2ccc(Cl)cc2)cs1,5.7%
11,CCOc1cc(/C=C2\C(=O)NC(=O)N(c3ccc(C)cc3)C2=O)ccc1O,11.9%
12,Cc1cccc(C)c1NC(=O)c1ccc(CN2CCOCC2)cc1,-7.4%
13,O=C(COc1ccccc1)Nc1ccccc1I,6.2%
14,O=C1NC(=O)N(c2ccc(Cl)cc2)C(=O)/C1=C/c1ccc(I)o1,19.1%
15,Fc1ccc(-c2cc(-c3ccccc3)nc(N/N=C\c3ccco3)n2)cc1,-11%
16,CCOc1ccc(NC(=O)c2cccc(C(F)(F)F)c2)c([N+](=O)[O-])c1,9.2%
17,CCN(CC)c1ccc(NS(=O)(=O)c2ccc(Cl)cc2)cc1,5.9%
18,Cc1cccc(C)c1NC(=O)CSc1nc2ccccc2s1,-6.4%
19,COc1ccc(/C=N/NC(=O)CCNc2n[nH]c(=O)[nH]c2=O)c(OC)c1,3.5%
20,COc1cc(/C=C2/C(=O)NC(=S)N(c3ccccc3F)C2=O)ccc1OCc1ccc(C(=O)O)cc1,13.1%
21,COC(=O)c1ccc(OCC(=O)Nc2ncccn2)cc1,-6%
22,Cc1ccc(S(=O)(=O)/N=C(/Nc2ccc([N+](=O)[O-])cc2)c2ccccc2)cc1,10.6%
23,CCOc1ccc(/C=c2\sc3nc4ccccc4n3c2=O)cc1Cl,19.1%
24,Fc1ccc(OCCN2CCCCC2)cc1,0.5%
25,O=C1C(Nc2ccc(F)cc2)=CC(c2ccccc2[N+](=O)[O-])N1c1ccc(F)cc1 (stereo not given),3.3%
26,Cc1cc([N+](=O)[O-])ccc1-c1ccc(C(=O)Nc2ccc(Cl)cc2)o1,45.8%
27,CC(=O)c1ccc(NC(=O)c2cc3nc(-c4ccc(Br)cc4)cc(C(F)(F)F)n3n2)cc1,28.6%

row,Structure (SMILES),displacement
1,Cc1cccc(NC(=O)c2cc(-c3ccc(Cl)cc3)nc3ccccc23)n1,0.4%
2,CCC1=NN2C(=N)/C(=C/c3ccc(-c4ccc(F)c(Cl)c4)o3)C(=O)N=C2S1,-0.2%
3,COc1cc(Br)c(/C=C2/SC(=S)NC2=O)cc1OC,0.7%
4,FC(F)(F)c1ccccc1CN1CCN(C2CCCC2)CC1,-2.8%
5,COc1ccc(CC(=O)Nc2sc3c(c2C(=O)Nc2ccccc2Cl)CCCCC3)cc1,9%
6,COc1ccc(-c2cc(C(=O)Nc3cccc(F)c3)c3ccccc3n2)cc1OC,-9.6%
7,O=C(c1nn2c(C(F)(F)F)cc(-c3cccs3)nc2c1Br)N1CCOCC1,-0.7%
8,CCCC(=O)Nc1ccc(NC(=O)COc2ccccc2C)cc1,7.1%
9,O=C(N/N=C/c1ccco1)c1ccc(C(=O)N/N=C/c2ccco2)cc1,27.6%
10,Cc1cc(=O)[nH]c(SCC(=O)Nc2ccc(S(N)(=O)=O)cc2)n1,-8.3%
11,COC(=O)c1ccc(N2C(=O)C3C4C=CC(C5CC45)C3C2=O)cc1 (stereo not given),12.9%
12,C/C=C/COC(=O)C1=C(C)NC(=O)NC1c1ccc(F)cc1 (stereo not given),2.5%
13,COc1ccc(-c2cc(C(F)(F)F)n3ncc(C(=O)Nc4cc(Cl)ccc4O)c3n2)cc1,-1.1%
14,COc1cccc(C(CC(=O)O)NC(=O)c2ccccc2)c1 (stereo not given),-12.6%
15,O=C(Nc1ccc(Cc2ccc(NC(=O)c3ccccc3)c(Cl)c2)cc1Cl)c1ccccc1,28.7%
16,CC1CCCC(C)N1CC(O)COCc1ccc2c(c1)OCO2 (stereo not given),-1%
17,CCC(=O)Nc1ccc(C(=O)n2nc(C)cc2C)cc1,-8.3%
18,Cc1ccc(N2C(=O)c3ccc(C(=O)O)cc3C2=O)nc1,-10.6%
19,COc1cc(NC(=O)c2ccccc2I)ccc1NC(=O)c1ccco1,6.9%
20,Oc1ccc(Cl)cc1-c1cc(-c2ccccc2)n[nH]1,-7%
21,CC/C(=N\NC(N)=O)C1CC(C(C)C)CC=C1C (stereo not given),1.8%
22,O=C(CC1S\C(=N/N=C/C=C/c2ccccc2)NC1=O)Nc1ccc(Cl)cc1 (stereo not given),11%
23,CC(=O)c1ccc(NC(=O)c2ccc3c(c2)C(=O)N(c2ccccc2C)C3=O)cc1,-4.1%
24,NC(=O)c1ccccc1N=Cc1ccco1,-4.7%
25,Cc1ccc(/C(O)=C2\C(=O)C(=O)N(CCCC(=O)O)C2c2ccccc2[N+](=O)[O-])cc1 (stereo not given),1.1%
26,CC1CN(c2ccc([N+](=O)[O-])cc2)CCN1C(=O)c1ccc(F)cc1 (stereo not given),10.5%
27,COc1ccccc1NC(=O)c1c(NC(C)=O)sc2c1CCCC2,9.6%

row,Structure (SMILES),displacement
1,O=C(Cn1nc2ccccc2n1)N/N=C/c1ccc(Cl)cc1Cl,-1.3%
2,Cc1cc(C)cc(NC2=NC3(CCCCC3)N=C(N)N2)c1,-4.5%
3,O=C(NCCCN1CCOCC1)c1ccc(S(=O)(=O)N2CCOCC2)cc1,-1.6%
4,CC1=NN(c2ccc(C)cc2)C(=O)C1C(c1ccccc1O)c1c(C)[nH]n(-c2ccc(C)cc2)c1=O (stereo not given),7.3%
5,Cc1ccc(S(=O)(=O)Nc2ccccc2C(=O)Nc2ccccc2)cc1,9.6%
6,Cc1c(Cl)cccc1NC(=O)C1(C)CC2c3ccccc3C1c1ccccc12 (stereo not given),-4.6%
7,COc1ccccc1N1CCN(S(=O)(=O)c2c(C)cc(C)cc2C)CC1,-14.2%
8,O=C(NC1CCCC1)c1cc(-c2ccccc2Cl)nc2ccccc12,-11.6%
9,O=C(Nc1ccc(Oc2ccc(NC(=O)C3CCCCC3)cc2)cc1)C1CCCCC1,10.4%
10,O=C(CCC1CCCC1)Nc1ccc2c(c1)oc1ccccc12,2.3%
11,Cc1ccc(N2C(=O)CC(Sc3ncccn3)C2=O)cc1 (stereo not given),3%
12,O=C(Nc1ccccc1F)c1ccccc1C(F)(F)F,-9.6%
13,CC1CCCN(CN2C(=O)C(=O)c3cc(Br)ccc32)C1 (stereo not given),10.1%
14,Cc1ccc(-n2c(C)cc(/C=N/NC(=O)c3cccnc3)c2C)c(C)c1,-30.1%
15,CCOC(=O)c1ccc(-c2ccc(C(=O)Nc3ccc(Cl)cc3)o2)cc1,-1.3%
16,CCOc1ccccc1C=Nc1ccccc1-c1ccccc1N=Cc1ccccc1OCC,-9.7%
17,COC(=O)C(=C/C=C/C=C/N(C)C)C(=O)OC,28.1%
18,CC(C)Oc1cccc(C(=O)N2CCC(Cc3ccccc3)CC2)c1,-5.1%
19,CC1=CC(C)(C)N(CC(=O)c2ccc([N+](=O)[O-])cc2)c2ccccc21,-3.5%
20,Cc1ccc(-c2nnc(-c3cccc(F)c3)o2)cc1,3.9%
21,O=C1C2C3C=CC(C4CC34)C2C(=O)N1CCc1ccccc1 (stereo not given),0.1%
22,CCOC(=O)c1c(NC(=O)C(C)Oc2ccc(OC)cc2)sc2c1CCC2 (stereo not given),-2.2%
23,O=S(=O)(Nc1cc(Cl)c(O)c2ccccc12)c1ccc2ccccc2c1,44%
24,O=[N+]([O-])c1ccc(Cl)c(S(=O)(=O)Nc2cc(Cl)ccc2Cl)c1,6.1%
